Some of the results follow. Cleavage of a single-stranded DNA pool by Rep nickase domains was read by sequencing at 3 µM enzyme and 37 °C for 1 h; the strands have 90 letters, of which the middle is given. The score is log2 (uncut reads / reads without enzyme); the lower, the more was cut; hits are not called. Because reads are shares of a total, they shift together, so uncut sequences can rise above 0 when many others are cut.
Each sequence was assayed on T1, Rep nickase domain of Muscovy duck circovirus (assay: uncleaved DNA left, log2 of reads against the no-enzyme library (log2 ratio); higher = less cleavage (more negative = more Rep cleavage of the k-mer); sequences stand for … in CTCGTCCG…ACCGGAGA).
T1 sequence (residues 1-111, tag not shown): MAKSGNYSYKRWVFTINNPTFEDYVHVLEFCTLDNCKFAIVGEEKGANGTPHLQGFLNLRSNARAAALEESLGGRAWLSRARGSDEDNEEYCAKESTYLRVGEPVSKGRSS
Procedure: (§1)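 A pool of 90-nt single-stranded DNAs with seven random bases just before the constant AC of the nick site (name = the seven bases) was cut by 3 µM recombinant His6-SUMO-tagged Rep nickase domain (300 nM DNA, 50 mM HEPES pH 8.0, 50 mM NaCl, 1 mM MnCl2, 1 h, 37 °C, three replicates). Uncut DNA was amplified and sequenced.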

Sequence | uncleaved DNA left (log2)
ACAGCTG | 0.0384
AATCGTC | 0.0292
TCGCAGA | 0.0433
GCATGAA | 0.071
CGCCCGC | -0.0291
GAAACGG | 0.0182
TGCCGAG | -0.106
TGCATTC | 0.0325
CTACAAC | -0.22
ATTTGCG | -0.171
GGAACTA | -0.00786
CAGGCCG | -0.00664
CGGTGAA | -0.0514
TCGGCGT | -0.0759
TCCACTC | 0.0102
GTACAGC | 0.158
AGGTCCT | 0.0478
CGCTCTC | 0.0347
CCGCTCT | 0.0649
CCGGATA | -0.0714

Sequence | uncleaved DNA left (log2)
ACACGCC | -0.0107
TCCTACC | -1.14
CGACCGT | -0.00864
GCGTTCT | -0.396
AAACTGT | 0.0827
TCGTCTC | -0.161
CAAACTA | -0.0969
ACTAGCC | 0.0304
AGAGGTG | -0.0561
CACTGAC | 0.139
ACGCGCG | 0.00332
GTGGAGT | 0.199
TTTAGGG | 0.0308
AGCCCGT | -0.123
TAGACTA | 0.0899
GGGGGTG | -0.00233
TGTCGGA | 0.154
GAAGCGG | 0.122
TGTAACG | 0.0489
ACATTTC | 0.0221

What follows are sequences tested on T2, Rep nickase domain of banana bunchy top virus in the same assay as above.
T2 sequence (residues 1-94, tag not shown): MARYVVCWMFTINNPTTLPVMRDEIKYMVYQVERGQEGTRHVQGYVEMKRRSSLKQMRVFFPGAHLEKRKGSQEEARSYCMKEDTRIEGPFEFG
Procedure: as §1

Sequence | uncleaved DNA left (log2)
ACAGCTG | 0.0359
AATCGTC | -0.14
TCGCAGA | -0.0776
GCATGAA | 0.0744
CGCCCGC | -0.0354
GAAACGG | 0.108
TGCCGAG | -0.0584
TGCATTC | 0.0324
CTACAAC | -0.0973
ATTTGCG | -0.107
GGAACTA | 0.0977
CAGGCCG | -0.122
CGGTGAA | -0.0594
TCGGCGT | -0.251
TCCACTC | -0.0581
GTACAGC | 0.137
AGGTCCT | 0.0223
CGCTCTC | -0.158
CCGCTCT | -0.00293
CCGGATA | -0.189

Sequence | uncleaved DNA left (log2)
ACACGCC | -0.0806
TCCTACC | -0.13
CGACCGT | -0.0607
GCGTTCT | -0.0156
AAACTGT | 0.0662
TCGTCTC | -0.151
CAAACTA | 0.0906
ACTAGCC | -0.0426
AGAGGTG | 0.068
CACTGAC | 0.0251
ACGCGCG | 0.0211
GTGGAGT | 0.207
TTTAGGG | 0.045
AGCCCGT | -0.0604
TAGACTA | 0.0996
GGGGGTG | -0.0174
TGTCGGA | -0.00641
GAAGCGG | 0.0409
TGTAACG | 0.000346
ACATTTC | 0.00692

These sequences were tested on T3, Rep nickase domain of cabbage leaf curl virus in the same assay as above.
T3 sequence (residues 1-116, tag not shown): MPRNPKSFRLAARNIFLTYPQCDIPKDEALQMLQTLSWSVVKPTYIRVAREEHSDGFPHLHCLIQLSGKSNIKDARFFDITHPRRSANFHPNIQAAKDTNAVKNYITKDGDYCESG
Procedure: as §1

Sequence | uncleaved DNA left (log2)
ACAGCTG | 0.252
AATCGTC | -0.00625
TCGCAGA | -0.0906
GCATGAA | 0.0264
CGCCCGC | -0.0714
GAAACGG | 0.554
TGCCGAG | 0.575
TGCATTC | 0.0903
CTACAAC | -0.394
ATTTGCG | 0.335
GGAACTA | 0.78
CAGGCCG | -0.893
CGGTGAA | 0.125
TCGGCGT | -0.783
TCCACTC | 0.0956
GTACAGC | 0.516
AGGTCCT | 0.368
CGCTCTC | 0.0115
CCGCTCT | -0.0488
CCGGATA | 0.105

Sequence | uncleaved DNA left (log2)
ACACGCC | -0.383
TCCTACC | -0.452
CGACCGT | 0.108
GCGTTCT | 0.0584
AAACTGT | 0.0409
TCGTCTC | 0.0427
CAAACTA | -0.334
ACTAGCC | -0.268
AGAGGTG | -0.108
CACTGAC | -0.0537
ACGCGCG | -0.26
GTGGAGT | 0.776
TTTAGGG | 0.333
AGCCCGT | 0.518
TAGACTA | 0.0368
GGGGGTG | 0.443
TGTCGGA | 0.146
GAAGCGG | 0.325
TGTAACG | -0.554
ACATTTC | -0.235

What follows are sequences tested on T4, Rep nickase domain of chickpea chlorotic dwarf virus in the same assay as above.
T4 sequence (residues 1-124, tag not shown): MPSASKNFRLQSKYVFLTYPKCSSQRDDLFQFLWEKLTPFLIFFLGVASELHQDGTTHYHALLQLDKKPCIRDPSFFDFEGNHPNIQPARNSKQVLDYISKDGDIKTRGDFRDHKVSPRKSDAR
Procedure: as §1

Sequence | uncleaved DNA left (log2)
ACAGCTG | 1.08
AATCGTC | -0.507
TCGCAGA | -0.0994
GCATGAA | 0.329
CGCCCGC | -0.14
GAAACGG | 1.66
TGCCGAG | 1.04
TGCATTC | 0.219
CTACAAC | -2.43
ATTTGCG | 1.41
GGAACTA | 1.85
CAGGCCG | -0.438
CGGTGAA | 0.617
TCGGCGT | -0.536
TCCACTC | -0.689
GTACAGC | 1.05
AGGTCCT | -0.0218
CGCTCTC | -0.193
CCGCTCT | -1.44
CCGGATA | 0.48

Sequence | uncleaved DNA left (log2)
ACACGCC | -0.642
TCCTACC | -2.67
CGACCGT | 0.149
GCGTTCT | -0.631
AAACTGT | -0.0428
TCGTCTC | -0.058
CAAACTA | -2.58
ACTAGCC | -0.353
AGAGGTG | 0.217
CACTGAC | 0.41
ACGCGCG | 1.22
GTGGAGT | 1.45
TTTAGGG | 0.718
AGCCCGT | 1.25
TAGACTA | -0.376
GGGGGTG | 1.07
TGTCGGA | 0.389
GAAGCGG | 1.03
TGTAACG | -0.873
ACATTTC | -0.18

These sequences were tested on T5, Rep nickase domain of faba bean necrotic yellows virus in the same assay as above.
T5 sequence (residues 1-98, tag not shown): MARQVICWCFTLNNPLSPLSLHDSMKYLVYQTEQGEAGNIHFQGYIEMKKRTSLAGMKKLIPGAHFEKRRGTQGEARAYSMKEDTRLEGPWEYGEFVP
Procedure: as §1

Sequence | uncleaved DNA left (log2)
ACAGCTG | 0.139
AATCGTC | -0.0355
TCGCAGA | -0.00808
GCATGAA | 0.211
CGCCCGC | 0.032
GAAACGG | -0.0267
TGCCGAG | 0.0672
TGCATTC | -0.0169
CTACAAC | -0.0174
ATTTGCG | -0.0488
GGAACTA | -0.0601
CAGGCCG | 0.0341
CGGTGAA | -0.0544
TCGGCGT | -0.179
TCCACTC | -0.11
GTACAGC | -0.0236
AGGTCCT | 0.0447
CGCTCTC | -0.0693
CCGCTCT | 0.152
CCGGATA | -0.0777

Sequence | uncleaved DNA left (log2)
ACACGCC | -0.0794
TCCTACC | -0.273
CGACCGT | 0.00667
GCGTTCT | -0.134
AAACTGT | 0.0572
TCGTCTC | -0.112
CAAACTA | 0.0587
ACTAGCC | 0.142
AGAGGTG | 0.0497
CACTGAC | -0.0762
ACGCGCG | -0.132
GTGGAGT | 0.0894
TTTAGGG | -0.00293
AGCCCGT | 0.046
TAGACTA | 0.151
GGGGGTG | 0.0719
TGTCGGA | 0.0143
GAAGCGG | 0.0484
TGTAACG | 0.00733
ACATTTC | -0.025

— the supplement of paper PMC7826260
